Article PMC9911399, “Two distinct binding modes provide the RNA-binding protein RbFox with extraordinary sequence specificity”
Numbering of substitutions follows the chain as printed; changes in the protein carry UniProt numbers. Some of the results follow.

T1: RBFOX1 RRM RbFoxmut (Fox-RRM*) (Homo sapiens, UniProt Q9NWB1 109-208, R118D;E147R;N151S;E152T)
T1 sequence: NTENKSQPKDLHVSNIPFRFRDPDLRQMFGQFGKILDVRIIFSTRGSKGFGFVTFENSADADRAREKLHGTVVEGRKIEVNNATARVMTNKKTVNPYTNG

B1: CCGAUAG (DNA:RNA)
RNA: GGGAGACCGGAAUUCAGAUUGUCCCCGAUAGUUAAAUCCCGUCGUAGCCACCA
DNA 1: CAATCTGAATTCCGGTCTCCC
DNA 2: TGGTGGCTACGACGGGATT
B2: UUUAACC (DNA:RNA)
RNA: B1 RNA with C25U, C26U, G27U, U29A, A30C, G31C
DNA 1: CAATCTGAATTCCGGTCTCCC
DNA 2: TGGTGGCTACGACGGGATT
B3: GACUCUU (DNA:RNA)
RNA: GGGAGACCGGAAUUCAGAUUGUCCGACUCUUUUAAAUCCCGUCGUAGCCACCA
DNA 1: CAATCTGAATTCCGGTCTCCC
DNA 2: TGGTGGCTACGACGGGATT
B4: GAGGCUC (DNA:RNA)
RNA: B3 RNA with C27G, U28G, U31C
DNA 1: CAATCTGAATTCCGGTCTCCC
DNA 2: TGGTGGCTACGACGGGATT
B5: CUCCCCC (DNA:RNA)
RNA: B3 RNA with G25C, A26U, U28C, U30C, U31C
DNA 1: CAATCTGAATTCCGGTCTCCC
DNA 2: TGGTGGCTACGACGGGATT
B6: CUUAAGC (DNA:RNA)
RNA: B1 RNA with C26U, G27U, U29A, A30G, G31C
DNA 1: CAATCTGAATTCCGGTCTCCC
DNA 2: TGGTGGCTACGACGGGATT
B7: CCCGUCU (DNA:RNA)
RNA: B1 RNA with G27C, A28G, A30C, G31U
DNA 1: CAATCTGAATTCCGGTCTCCC
DNA 2: TGGTGGCTACGACGGGATT
B8: GUACACU (DNA:RNA)
RNA: B3 RNA with A26U, C27A, U28C, C29A, U30C
DNA 1: CAATCTGAATTCCGGTCTCCC
DNA 2: TGGTGGCTACGACGGGATT
B9: UGGAACA (DNA:RNA)
RNA: B1 RNA with C25U, C26G, U29A, A30C, G31A
DNA 1: CAATCTGAATTCCGGTCTCCC
DNA 2: TGGTGGCTACGACGGGATT
B10: UACAAUC (DNA:RNA)
RNA: B3 RNA with G25U, U28A, C29A, U31C
DNA 1: CAATCTGAATTCCGGTCTCCC
DNA 2: TGGTGGCTACGACGGGATT
B11: CGUUAUC (DNA:RNA)
RNA: B3 RNA with G25C, A26G, C27U, C29A, U31C
DNA 1: CAATCTGAATTCCGGTCTCCC
DNA 2: TGGTGGCTACGACGGGATT
B12: CAGCUCA (DNA:RNA)
RNA: B1 RNA with C26A, A28C, A30C, G31A
DNA 1: CAATCTGAATTCCGGTCTCCC
DNA 2: TGGTGGCTACGACGGGATT
B13: AUUAGUG (DNA:RNA)
RNA: B1 RNA with C25A, C26U, G27U, U29G, A30U
DNA 1: CAATCTGAATTCCGGTCTCCC
DNA 2: TGGTGGCTACGACGGGATT
B14: GAAAUAU (DNA:RNA)
RNA: B1 RNA with C25G, C26A, G27A, G31U
DNA 1: CAATCTGAATTCCGGTCTCCC
DNA 2: TGGTGGCTACGACGGGATT
B15: GCAAAGU (DNA:RNA)
RNA: B1 RNA with C25G, G27A, U29A, A30G, G31U
DNA 1: CAATCTGAATTCCGGTCTCCC
DNA 2: TGGTGGCTACGACGGGATT
B16: GUCAUAG (DNA:RNA)
RNA: B1 RNA with C25G, C26U, G27C
DNA 1: CAATCTGAATTCCGGTCTCCC
DNA 2: TGGTGGCTACGACGGGATT
B17: UCCAGAU (DNA:RNA)
RNA: B1 RNA with C25U, G27C, U29G, G31U
DNA 1: CAATCTGAATTCCGGTCTCCC
DNA 2: TGGTGGCTACGACGGGATT
B18: CACUCGU (DNA:RNA)
RNA: B3 RNA with G25C, U30G
DNA 1: CAATCTGAATTCCGGTCTCCC
DNA 2: TGGTGGCTACGACGGGATT
B19: GACGGCC (DNA:RNA)
RNA: B3 RNA with U28G, C29G, U30C, U31C
DNA 1: CAATCTGAATTCCGGTCTCCC
DNA 2: TGGTGGCTACGACGGGATT
B20: UAGUCCU (DNA:RNA)
RNA: B3 RNA with G25U, C27G, U30C
DNA 1: CAATCTGAATTCCGGTCTCCC
DNA 2: TGGTGGCTACGACGGGATT
B21: GCUCCAU (DNA:RNA)
RNA: B3 RNA with A26C, C27U, U28C, U30A
DNA 1: CAATCTGAATTCCGGTCTCCC
DNA 2: TGGTGGCTACGACGGGATT
B22: CCAUGCA (DNA:RNA)
RNA: B1 RNA with G27A, A28U, U29G, A30C, G31A
DNA 1: CAATCTGAATTCCGGTCTCCC
DNA 2: TGGTGGCTACGACGGGATT
B23: AGUAUGG (DNA:RNA)
RNA: B1 RNA with C25A, C26G, G27U, A30G
DNA 1: CAATCTGAATTCCGGTCTCCC
DNA 2: TGGTGGCTACGACGGGATT
B24: GCAACGG (DNA:RNA)
RNA: B1 RNA with C25G, G27A, U29C, A30G
DNA 1: CAATCTGAATTCCGGTCTCCC
DNA 2: TGGTGGCTACGACGGGATT
B25: GAGCAAA (DNA:RNA)
RNA: B1 RNA with C25G, C26A, A28C, U29A, G31A
DNA 1: CAATCTGAATTCCGGTCTCCC
DNA 2: TGGTGGCTACGACGGGATT
B26: GUCUCAG (DNA:RNA)
RNA: B3 RNA with A26U, U30A, U31G
DNA 1: CAATCTGAATTCCGGTCTCCC
DNA 2: TGGTGGCTACGACGGGATT
B27: CUAAUCU (DNA:RNA)
RNA: B1 RNA with C26U, G27A, A30C, G31U
DNA 1: CAATCTGAATTCCGGTCTCCC
DNA 2: TGGTGGCTACGACGGGATT
B28: GGAUGAC (DNA:RNA)
RNA: B3 RNA with A26G, C27A, C29G, U30A, U31C
DNA 1: CAATCTGAATTCCGGTCTCCC
DNA 2: TGGTGGCTACGACGGGATT
B29: GUACCAA (DNA:RNA)
RNA: B3 RNA with A26U, C27A, U28C, U30A, U31A
DNA 1: CAATCTGAATTCCGGTCTCCC
DNA 2: TGGTGGCTACGACGGGATT
B30: CAUAGGA (DNA:RNA)
RNA: B1 RNA with C26A, G27U, U29G, A30G, G31A
DNA 1: CAATCTGAATTCCGGTCTCCC
DNA 2: TGGTGGCTACGACGGGATT
B31: AAUGAGU (DNA:RNA)
RNA: B3 RNA with G25A, C27U, U28G, C29A, U30G
DNA 1: CAATCTGAATTCCGGTCTCCC
DNA 2: TGGTGGCTACGACGGGATT

molecular target: T1, RBFOX1 RRM RbFoxmut (Fox-RRM*); test: EMSA; HiTS-Eq, 1 nM pool, 10 min; buffer printed only for the single-RNA assays: 10 mM Tris pH 7.5, 150 mM NaCl, 3.4 mM EDTA, 0.001% NP-40, 30 C; conditions: tags: His6 N-terminal (pET28a); label: 5' 32P
Procedure, shortened: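 Purified RbFox RRM, wild type or mutant, was incubated for 10 min in 50 µL with 1 nM of a 5′-radiolabelled RNA pool carrying 7 randomized nucleotides, whose flanks were annealed to DNA oligonucleotides, over a series of increasing protein concentrations. Unbound RNA was resolved on 8% native PAGE, cut out, reverse-transcribed, barcoded by PCR and sequenced on an Illumina HiSeq 2500. Relative association constants were derived from changes in read counts for each RNA species versus the control reaction and normalised to the cognate motif.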

Binder | binding signal
B1 | 0.0811 KA relative to UGCAUGU
B2 | 0.0651 KA relative to UGCAUGU
B3 | 0.0578 KA relative to UGCAUGU
B4 | 0.0955 KA relative to UGCAUGU
B5 | 0.0382 KA relative to UGCAUGU
B6 | 0.0962 KA relative to UGCAUGU
B7 | 0.079 KA relative to UGCAUGU
B8 | 0.0746 KA relative to UGCAUGU
B9 | 0.123 KA relative to UGCAUGU
B10 | 0.0466 KA relative to UGCAUGU
B11 | 0.11 KA relative to UGCAUGU
B12 | 0.0925 KA relative to UGCAUGU
B13 | 0.162 KA relative to UGCAUGU
B14 | 0.0906 KA relative to UGCAUGU
B15 | 0.0955 KA relative to UGCAUGU
B16 | 0.115 KA relative to UGCAUGU

Binder | binding signal
B17 | 0.0838 KA relative to UGCAUGU
B18 | 0.123 KA relative to UGCAUGU
B19 | 0.147 KA relative to UGCAUGU
B20 | 0.0762 KA relative to UGCAUGU
B21 | 0.0852 KA relative to UGCAUGU
B22 | 0.211 KA relative to UGCAUGU
B23 | 0.222 KA relative to UGCAUGU
B24 | 0.0714 KA relative to UGCAUGU
B25 | 0.0797 KA relative to UGCAUGU
B26 | 0.148 KA relative to UGCAUGU
B27 | 0.0573 KA relative to UGCAUGU
B28 | 0.124 KA relative to UGCAUGU
B29 | 0.0746 KA relative to UGCAUGU
B30 | 0.0763 KA relative to UGCAUGU
B31 | 0.16 KA relative to UGCAUGU
